Assay results taken from the supplement of paper PMC12217912.
The list shows a part of the results. Sequences were assembled here from the parent chain. Values near 0.05 are background.

B1: TEV protease; numbered along this chain (parent)
chain: MGESLFKGPRDYNPISSSICHLTNESDGHTTSLYGIGFGPFIITNKHLFRRNNGTLVVQSLHGVFKVKDTTTLQQHLVDGRDMIIIRMPKDFPPFPQKLKFREPQREERICLVTTNFQTKSMSSMVSDTSCTFPSGDGIFWKHWIQTKDGQCGSPLVSTRDGFIVGIHSASNFTNTNNYFTSVPKNFMELLTNQEAQQWVSGWRLNADSVLWGGHKVFMVKPEEPFQPVKEATQL

Variants of: B1
Test: raw area under fraction-flipped curve 0-4 h after induction (AUC4h, not background-subtracted), DNA-recorder readout of cleavage of the substrate (dimensionless); higher = more cleavage of the substrate by the protease variant
Conditions: temperature: 34 °C; time window: 0-4 h after rhamnose induction
Method: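 In vivo DNA recorder in E. coli TOP10(DE3) ΔrhaA at 34 °C. Each TEVp single-site mutant (parent TEVp 0) is paired with a single-site variant of the 7-mer TEVs (canonical ENLYFQ|S). The substrate sits between flexible linkers in a Bxb1-sfGFP-TEVs-SsrA fusion, so cleavage stabilises Bxb1 and speeds flipping of a recombination array, read by NGS. The value is the raw area under the fraction-flipped curve over 0-4 h after rhamnose induction (AUC4h), with ≥20 reads per time point. It is not background-subtracted; inactive controls average about 0.047.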
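Note: Bxb1 expression induced with 0.2% (w/v) L-rhamnose at OD600 near 0.5, cultures sampled hourly, flipped fraction per protease–substrate barcode pair counted by paired-end Illumina sequencing.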

Variant	area with substrate ENLYFQA	area with substrate ENLYFQC	area with substrate ENLYFQD	area with substrate ENLYFQF	area with substrate ENLYFQG	area with substrate ENLYFQH	area with substrate ENLYFQI	area with substrate ENLYFQL	area with substrate ENLYFQM	area with substrate ENLYFQN	area with substrate ENLYFQQ	area with substrate ENLYFQR	area with substrate ENLYFQS	area with substrate ENLYFQT	area with substrate ENLYFQW	area with substrate ENLYFQE	area with substrate ENLYFQK	area with substrate ENLYFQP	area with substrate ENLYFQY	area with substrate ENLYFQV
MGESLFKGPRDYNPISSSICHLTNESDGHTTSLYGIGFGPFIITNKHLFRRNNGTLVVQSLHGVFKVKDTTTLQQHLVDGRDMIIIRMPKDFPPFPQKLKFREPQREERICLVTTNFQTKSMSSMVSDTSCTFPSGDGIFWKHWIQTKDGQCGSPLVSTRDGFIVGIHSASNFTNTNNYFTSVPKNFMELLTNQEAQQWVSGWRLNADSVLWGGHKVFMVKPEVPFQPVKEATQL [E224V]	0.0861	0.0881	0.0204	0.0694	0.101	0.0827	0.0682	0.0655	0.0681	0.0752	0.0684	0.0513	0.0921	0.0487	0.0644					
MGESLFKGPRDYNPISSSICHLTNESDGHTTSLYGIGFGPFIITNKHLFRRNNGTLVVQSLHGVFKVKDTTTLQQHLVDGRDMIIIRMPKDFPPFPQKLKFREPQREERICLVTTNFQTKSMSSMVSDTSCTFPSGDGIFWKHWIQTKDGQCGSPLVSTRDGFIVGIHSASNFTNTNNYFTSVPKNFMELLTNQEAQQWVSGWRLNADSVLWGGHKVFMVKPENPFQPVKEATQL [E224N]	0.103	0.103	0.0781		0.0732	0.0842	0.0653	0.0611	0.0745		0.0073	0.0516	0.0961	0.0625	0.057	0.0932	0.0582	0.0592		
MGESLFKGPRDYNPISSSICHLTNESDGHTTSLYGIGFGPFIITNKHLFRRNNGTLVVQSLHGVFKVKDTTTLQQHLVDGRDMIIIRMPKDFPPFPQKLKFREPQREERICLVTTNFQTKSMSSMVSDTSCTFPSGDGIFWKHWIQTKDGQCGSPLVSTRDGFIVGIHSASNFTNTNNYFTSVPKNFMELLTNQEAQQWVSGWRLNADSVLWGGHRVFMVKPEEPFQPVKEATQL [K216R]	0.108		0.0758		0.104								0.0858							
MGESLFKGPRDYNPISSSICHLTNESDGHTTSLYGIGFGPFIITNKHLFRRNNGTLVVQSLHGVFKVKDTTTLQQHLVDGRDMIIIRMPKDFPPFPQKLKFREPQREERICLVTTNFQTKSMSSMVSDTSCTFPSGDGIFWKHWIQTKDGQCGSPLVSTRDGFIVGIHSASNFTNTNNYFTSVPKNFMELLTNQEAQQWVSGWRLNADSVLWGGHKVFMVKPEEPFQPVKEGTQL [A232G]	0.1	0.133	0.078	0.101	0.117	0.0844				0.0756			0.115		0.0865	0.0684		0.0529	0.101	
MGESLFKGPRDYNPISSSICHLTNESDGHTTSLYGIGFGPFIITNKHLFRRNNGTLVVQSLHGVFKVKDTTTLQQHLVDGRDMIIIRMPKDFPPFPQKLKFREPQREERICLVTTNFQTKSMSSMVSDTSCTFPSGDGIFWKHWIQTKDGQCGSPLVSTRDGFIVGIHSASNFTNTNNYFTSVPKNFMELLTNQEAQQWVSGWRLNADSVLWGGHKVFMVKPEEPFQPVKESTQL [A232S]	0.105	0.134	0.0698					0.0637	0.114				0.115	0.069	0.0585		0.0622	0.0604		
MGESLFKGPRDYNPISSSICHLTNESDGHTTSLYGIGFGPFIITNKHLFRRNNGTLVVQSLHGVFKVKDTTTLQQHLVDGRDMIIIRMPKDFPPFPQKLKFREPQREERICLVTTNFQTKSMSSMVSDTSCTFPSGDGIFWKHWIQTKDGQCGSPLVSTRDGFIVGIHSASNFTNTNNYFTSVPKNFMELLTNQEAQQWVSGWRLNADSVLWGGHKVFMVKPEEPFQPVKECTQL [A232C]	0.0995	0.0926			0.0927		0.0589	0.0569		0.0759		0.0449	0.0956		0.0684	0.0419				
MGESLFKGPRDYNPISSSICHLTNESDGHTTSLYGIGFGPFIITNKHLFRRNNGTLVVQSLHGVFKVKDTTTLQQHLVDGRDMIIIRMPKDFPPFPQKLKFREPQREERICLVTTNFQTKSMSSMVSDTSCTFPSGDGIFWKHWIQTKDGQCGSPLVSTRDGFIVGIHSASNFTNTNNYFTSVPKNFMELLTNQEAQQWVSGWRLNADSVLWGGHKVFMVKPEEPFQPVKEMTQL [A232M]	0.0604		0.0793		0.123	0.0866	0.0393	0.0805	0.0984	0.0741			0.104	0.0682	0.0632			0.0623		0.0624
MGESLFKGPRDYNPISSSICHLTNESDGHTTSLYGIGFGPFIITNKHLFRRNNGTLVVQSLHGVFKVKDTTTLQQHLVDGRDMIIIRMPKDFPPFPQKLKFREPQREERICLVTTNFQTKSMSSMVSDTSCTFPSGDGIFWKHWIQTKDGQCGSPLVSTRDGFIVGIHSASNFTNTNNYFTSVPKNFMELLTNQEAQQWVSGWRLNADSVLWGGHKVFMVKPEEPFQPVKEHTQL [A232H]	0.122				0.125		0.0796	0.0642		0.0903		0.0719	0.109		0.0639					
MGESLFKGPRDYNPISSSICHLTNESDGHTTSLYGIGFGPFIITNKHLFRRNNGTLVVQSLHGVFKVKDTTTLQQHLVDGRDMIIIRMPKDFPPFPQKLKFREPQREERICLVTTNFQTKSMSSMVSDTSCTFPSGDGIFWKHWIQTKDGQCGSPLVSTRDGFIVGIHSASNFTNTNNYFTSVPKNFMELLTNQEAQQWVSGWRLNADSVLWGGHKVFMVKPEEPFQPVKEKTQL [A232K]	0.112	0.143		0.097			0.0535	0.0764	0.115	0.0701	0.0763	0.0697	0.111	0.0648	0.0396			0.0529		
MGESLFKGPRDYNPISSSICHLTNESDGHTTSLYGIGFGPFIITNKHLFRRNNGTLVVQSLHGVFKVKDTTTLQQHLVDGRDMIIIRMPKDFPPFPQKLKFREPQREERICLVTTNFQTKSMSSMVSDTSCTFPSGDGIFWKHWIQTKDGQCGSPLVSTRDGFIVGIHSASNFTNTNNYFTSVPKNFMELLTNQEAQQWVSGWRLNADSVLWGGHKVFMRKPEEPFQPVKEATQL [V220R]	0.0789			0.0924	0.107	0.0745	0.0601	0.0677	0.107	0.0751	0.064	0.0667	0.105	0.0734	0.059				0.0754	0.0681
